Measured values taken from PubChem BioAssay AID485294 (National Center for Advancing Translational Sciences (NCATS), 2010).
“And” between values parts separate entries of the source, which are not always exact repeats. Equal values may be shown once. In all, about 370,000 compounds went through this assay and about 150 (0.041%) were called active. Inconclusive results, whose numbers are uncertain, are shown with a selection of clear calls. The call rests on the fitted dose curve; in most records, active means well fitted inhibition curve with a large enough effect; inconclusive means small, poorly fitted or top-dose-only effect; inactive means flat fitted curve, though single readings scatter. A potency beside an inconclusive call is a rough fit, not a confirmed value.

Each molecule was assayed against Beta-lactamase (Escherichia coli (strain K12)) (UniProt P00811) (assay: qHTS Inhibitors of AmpC Beta-Lactamase (assay with detergent)). Details: AmpC hydrolysis of nitrocefin, absorbance 480 nm, 0.01% Triton; activity change, negative = inhibition: at 114 µM (top of the series).
UniProt P00811, sequence (P00811 whole entry, looked up): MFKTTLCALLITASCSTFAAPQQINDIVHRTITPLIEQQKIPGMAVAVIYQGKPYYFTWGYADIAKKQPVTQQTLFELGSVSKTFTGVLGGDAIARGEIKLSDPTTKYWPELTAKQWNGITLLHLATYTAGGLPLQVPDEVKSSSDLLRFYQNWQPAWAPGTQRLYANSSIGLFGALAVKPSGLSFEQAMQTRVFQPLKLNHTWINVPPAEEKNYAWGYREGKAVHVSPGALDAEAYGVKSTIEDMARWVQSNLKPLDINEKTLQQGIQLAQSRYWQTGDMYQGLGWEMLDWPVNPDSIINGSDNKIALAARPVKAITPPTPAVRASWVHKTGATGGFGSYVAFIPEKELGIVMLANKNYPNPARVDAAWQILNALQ
In short: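 20 mM phosphate pH 7.0 + 0.01% (detergent screen) or 0.0001% Triton X-100; 5.3 nM AmpC reagent; cpd preinc 15 min RT; nitrocefin (800 uM stock) to start; A480 q20 s × 4 min; Activity was normalised to no-enzyme and no-compound control wells.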
Further: nearly all actives have a fitted effect of over 25% in size.
Potency means the concentration at half of the fitted maximal effect; tags describe the fitted curve by direction and shape.
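Wherever activity change, negative = inhibition is given: 0% = no-compound wells and -100% = no-enzyme wells.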

Row | SMILES | Potency | activity change, negative = inhibition
1 | Cc1ccc(N2C(=O)CC(NCc3ccc4c(c3)OCO4)C2=O)cc1Cl (configuration not stated) | inconclusive: 89.1 µM [inhibitor, partial curve, poor fit] | –
2 | Cc1ccnc(NC(=O)c2ccccc2[N+](=O)[O-])c1 | – | inactive: 1.37%
3 | CC(C)(CC(=O)O)Cc1nc(-c2ccc(Cl)cc2)no1 | inconclusive: 0.501 µM [inhibitor, full curve, poor fit] | –
4 | O=C(C1CCCCC1)N(Cc1cccnc1)c1nc2c(F)cccc2s1 | – | inactive: -3.51%
5 | CCCN(CC(=O)Nc1ccccc1C)C(=O)c1ccc(=O)n(Cc2ccccc2)n1 | inconclusive: 4.47 µM [inhibitor, single point] | –
6 | CCCNC(=O)C1(CC2CC(c3ccccc3)=NO2)CCN(C(=O)C2CCCC2)CC1 (configuration not stated) | – | inactive: -8.16%
7 | CC(C)Oc1ccc(CNC(=O)c2ccc3c(c2)N(Cc2ccc(F)cc2)CCS3)cc1 | – | inactive: 22.7%
8 | Cc1ccc(N(C)S(=O)(=O)c2ccc(-c3cnc(C4CC4)o3)cc2)cc1 | inactive | –
9 | C#CCOCCOCCOCCNc1nc(N2CCN(C(=O)CCCCCCCCCCNC(=O)[C@H](CCCCN)n3cc(CCO)nn3)CC2)nc(N2CCN(C(=O)CCCCCCCCCCNC(=O)[C@H](CCCCN)n3cc(CCCC(=O)O)nn3)CC2)n1 | inconclusive: 4.47 µM [inhibitor, single point] | –
10 | CCC(C)Sc1nc2c(cnn2-c2ccc(C)cc2)c(=O)[nH]1 (configuration not stated) | inconclusive: 3.16 µM [inhibitor, full curve] | –
11 | O=C(O)c1ccc[nH]c1=S | – | inactive: 2.22%
12 | COc1ccc(N(C)S(=O)(=O)c2cccc(C(=O)Nc3ccc(OC)nc3)c2)cc1 | inconclusive: 1.78 µM [inhibitor, full curve, poor fit] | –
13 | CC(=O)c1sc(NC(=O)c2ccc(Cn3cc(Br)cn3)o2)nc1C | inconclusive: 10 µM [inhibitor, full curve] | –
14 | C=CCNC(=S)N1CCC(C(=O)c2ccc(OC)cc2)CC1 | inconclusive: 0.631 µM [inhibitor, full curve, poor fit] | –
15 | COc1ccc(CCn2c(C)cc(C(=O)CSc3nnnn3-c3ccccc3)c2C)cc1OC | inconclusive: 100 µM [inhibitor, single point] | –
16 | COc1ccc(S(=O)(=O)N2CCC(C(=O)NCC3CCCO3)CC2)cc1Cl (configuration not stated) | inconclusive: 10 µM [inhibitor, full curve] | –
17 | O=C(NCc1cccs1)C(=O)NCC1OCCCN1S(=O)(=O)c1cccs1 (configuration not stated) | inconclusive: 2.82 µM [inhibitor, partial curve, poor fit] | –
18 | CN(C(=O)CSc1cn(CC(=O)N2CCCC2)c2ccccc12)c1ccccc1 | – | inactive: 6.93%
19 | Cc1cc([N+](=O)[O-])c2c(c1C)C1C=CCC1C(c1ccccn1)N2 (configuration not stated) | inconclusive: 3.98 µM [inhibitor, single point] | –
20 | CC(C)CN1CCN=C1N(C)C | inconclusive: 100 µM [inhibitor, single point] | –
21 | NNc1nc2c(Cl)ccc(Cl)c2s1 | inconclusive: 28.2 µM [inhibitor, partial curve] | –
22 | O=C(COC(=O)/C=C/c1ccccc1Cl)NCCNC(=O)COC(=O)/C=C/c1ccccc1Cl | inconclusive: 3.98 µM [inhibitor, full curve, poor fit] | –
23 | Cc1ccc2onc(CNC(=O)N(C)Cc3ccccc3)c2c1 | inconclusive: 39.8 µM [inhibitor, partial curve, poor fit] | –

Row | SMILES | Potency | activity change, negative = inhibition
24 | CC(=O)c1c(C)[nH]c(C(=O)OC2CCCCC2=O)c1C (configuration not stated) | inconclusive: 70.8 µM [inhibitor, partial curve, poor fit] | –
25 | Cc1cc(C)cc(NC(c2cccc(Cl)c2)c2nnc(-c3ccccc3)o2)c1 (configuration not stated) | – | inactive: 2.95%
26 | COc1ccc(NC(=O)C2CCN(S(=O)(=O)c3cccc4nonc34)CC2)c(OC)c1 | – | inactive: -2.08%
27 | CS(=O)(=O)CCC(C(=O)N1CCOCC1)N1C(=O)c2cc(Cl)c(Cl)cc2C1=O (configuration not stated) | inconclusive: 0.631 µM [inhibitor, full curve, poor fit] | –
28 | Cc1cc(=O)oc(C)c1C(=O)Nc1ccc2nsnc2c1 | inconclusive: 0.631 µM [inhibitor, full curve, poor fit] | –
29 | CN(CC(=O)Nc1cccc(C(F)(F)F)c1)Cc1ccccc1 | – | inactive: 5.54%
30 | CCC(=O)Nc1ccc(C=C(C(C)=O)C(C)=O)cc1 | – | inactive: 1.74%
31 | CN(C)S(=O)(=O)N1CCc2ccccc2C1 | inconclusive: 3.98 µM [inhibitor, full curve] | –
32 | COc1ccc(NC(=O)COc2cccc(-n3cnnn3)c2)cc1 | – | inactive: 1.32%
33 | O=C(NNC(=O)c1cc(Br)ccc1Cl)c1csc(N2CCOCC2)n1 | inconclusive: 56.2 µM [inhibitor, partial curve] | –
34 | c1ccc2c(c1)Nc1ccccc1S2 | – | inactive: -5.28%
35 | COC(=O)C1=NN(C(=O)c2cccc(Br)c2)C(O)(c2ccc(Cl)cc2)C1 (configuration not stated) | – | inactive: -2.78%
36 | COCCn1c(=S)[nH]c2cc(C(=O)N3CCc4ccccc4C3)ccc2c1=O | inconclusive: 89.1 µM [inhibitor, single point] | –
37 | O=C(c1ccccc1C(=O)N1CCN(c2ccccc2F)CC1)N1CCN(c2ccccc2F)CC1 | inconclusive: 0.631 µM [inhibitor, full curve, poor fit] | –
38 | CCC(C)c1ccc(NC(=S)NCCn2cc(Br)cn2)cc1 (configuration not stated) | inconclusive: 22.4 µM [inhibitor, full curve, poor fit] | –
39 | CC(=O)Nc1ccc(NC(=O)CN(C)CCC#N)cc1 | inconclusive: 1.58 µM [inhibitor, full curve, poor fit] | –
40 | Cc1cc(NS(=O)(=O)c2ccc(NC(=O)Cc3ccc([N+](=O)[O-])cc3)cc2)no1 | inconclusive: 1.26 µM [inhibitor, full curve] | –
41 | CCOc1cc(C)c(Cl)cc1S(=O)(=O)NCc1ccc2c(c1)OCO2 | inconclusive: 7.08 µM [inhibitor, full curve, poor fit] | –
42 | O=C1C2C3C=CC(O3)C2C(=O)N1CC(O)c1ccccc1 (configuration not stated) | inconclusive: 0.708 µM [inhibitor, full curve, poor fit] | –
43 | O=C(CSc1nc2c([nH]c3ccccc32)c(=O)n1-c1ccccc1)NCC1CCCO1 (configuration not stated) | inconclusive: 1.26 µM [inhibitor, full curve, poor fit] | –
44 | CC(NC(=O)C1CC1)c1ccc(-c2ccccc2)cc1 (configuration not stated) | – | inactive: 0.626%
45 | O=C(N/N=C/c1cccc([N+](=O)[O-])c1)c1cc(-c2ccc3c4c(cccc24)CC3)n[nH]1 | inconclusive: 4.47 µM [inhibitor, single point] | –
46 | CC1=C(C(=O)N2CCCC(N3CCN(c4ccccc4F)CC3)C2)OCCO1 (configuration not stated) | – | inactive: 3.2%

Row | SMILES | Potency | activity change, negative = inhibition
47 | COc1ccc(/C=N/Nc2nccnc2Cl)cc1 | inconclusive: 0.794 µM [inhibitor, full curve, poor fit] | –
48 | COc1ccc(S(=O)(=O)NCC2CCCN(Cc3cn(C)nc3C)C2)cc1 (configuration not stated) | inconclusive: 35.5 µM [inhibitor, full curve, poor fit] | –
49 | COc1ccccc1N1CCN(C(=O)c2onc(C)c2Cl)CC1 | inconclusive: 100 µM [inhibitor, partial curve, poor fit] | –
50 | COCCN1CCn2c(nc3cc([N+](=O)[O-])ccc32)C1 | – | inactive: -3.1%
51 | COc1ccc(C2OC[C@H]3O[C@H](O)[C@H](NC(C)=O)[C@@H](O)[C@@H]3O2)cc1 (some centres not stated) | – | inactive: -6.89%
52 | C=CCn1c(COc2cccc3ccc(C)nc23)nnc1SCC(=O)OC | inconclusive: 100 µM [inhibitor, partial curve, poor fit] | –
53 | Cc1ncc([N+](=O)[O-])n1CC(=O)NC(C)(C)C | inconclusive: 5.01 µM [inhibitor, full curve, poor fit] | –
54 | O=C(CN1CCN(c2ccc([N+](=O)[O-])cc2)CC1)Nc1ccccn1 | inconclusive: 100 µM [inhibitor, partial curve, poor fit] | –
55 | O=C(Nc1cc(Cl)ccc1-n1cncn1)c1ccc(F)c(S(=O)(=O)N2CCOCC2)c1 | inconclusive: 0.631 µM [inhibitor, full curve, poor fit] | –
56 | O=C(O)CCC(=O)NCc1ccc2[nH]c3c(c2c1)CCCC3 | inconclusive: 3.16 µM [inhibitor, full curve, poor fit] | –
57 | COc1cccc(Nc2nc(N)nc(C(F)(F)F)n2)c1 | – | inactive: -9.11%
58 | COc1ccccc1CNC(=O)Cn1cc([N+](=O)[O-])ccc1=O | – | inactive: 0.449%
59 | NC(=O)C1CCN(c2nc(-c3ccc(Br)cc3)cs2)CC1 | inactive and inconclusive: 631 nM [inhibitor, full curve, poor fit] | –
60 | Cc1nc2nc(-c3cccs3)cn2nc1C | inconclusive: 2.51 µM [inhibitor, full curve, poor fit] | –
61 | CCN(CC(=O)Nc1ccc(NC(C)=O)cc1)C(=O)Cc1coc2cc(C)c(C)cc12 | inconclusive: 22.4 µM [inhibitor, partial curve] | –
62 | CSc1nc(-c2ccccc2)[nH]c(=S)c1C(C)=O | inconclusive: 1 µM [inhibitor, full curve, poor fit] | –
63 | Cc1c(C(=O)N2CCOCC2)sc(NC(=O)CCl)c1C#N | – | inactive: -14%
64 | CN(C)c1ccc(CNCCC2(O)CCOC(C)(C)C2)cc1 (configuration not stated) | inconclusive: 1.58 µM [inhibitor, full curve, poor fit] | –
65 | Cc1ccc(CNC(=O)c2ccc3c(c2)N(Cc2cccc(Cl)c2)C(=O)CS3)cc1 | – | inactive: -4.37%
66 | O=C(CN1C(=O)NC2(CCc3ccccc32)C1=O)NCC(=O)Nc1ccc(F)cc1 (configuration not stated) | inconclusive: 1.58 µM [inhibitor, partial curve, poor fit] | –
67 | COc1ccc(CCN(Cc2nc3ccccc3c(=O)[nH]2)C(=O)c2ccco2)cc1OC | inconclusive: 2.82 µM [inhibitor, full curve, poor fit] | –
